The supplement of paper PMC10126150
Sequences with one replicate were seen in a single cluster, so their values are uncertain.

Test system: ATP
Assay: switch fluorescence ratio, 500 uM ATP over buffer (Cy3 cluster intensity, sum of 5 cycles each) (fold (ratio)); higher = stronger signal-on switching upon ATP binding; sequences stand for … in TCGTCGGCAGCGTCAGATGTGTATAAGAGACAGTTTTTTTTTTTTTTTTTTTTTTTTT…TC
Conditions: aptamer strand: ATP DNA aptamer (quencher-CACCTGGGGGAGTATTGCGGAGGAAGG + anchor), 100 nM annealed; ATP concentration: 500 uM; one replicate
Method in brief: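 Cy3-labelled switching-strand clusters on a modified Illumina MiSeq flow-cell were annealed to 100 nM quencher-labelled ATP aptamer, imaged in selection buffer, then imaged after 15 min with 500 uM ATP at 22 °C. Five buffer/ATP cycles ran, with NaOH stripping and re-annealing between them. The fluorescence ratio is summed target-cycle over summed buffer-cycle Cy3 intensity per cluster, averaged per switch-domain sequence. Clusters outside 100-1000 RFU were excluded.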
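Further: ATP exposure 15 min at 22 °C before imaging.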

Sequence	switch fluorescence ratio
CAGGACCGC	1.2
AACTCGAGAG	1
TCGTTGTT	0.972
CATCACATCT	1.05
GTCACTAAT	1.07
ATTTTAGGAT	0.984
ATGCGGGGGA	1.01
AAAGACGGGG	1.06
CCTATACCGC	2.4
AGTACCTGCA	1.12
GGAATGGACG	1.01
ACCTCTTAGT	0.973
GCGAATTGTT	0.981
CGTATGGAG	0.967
GTCAACGCTG	1
TGGCGATACG	1.15
TAGACGTGA	1.03
GATCCTGACT	1.27
CAGGTTTA	1.03
TCACTAGTTT	0.99
CGTCATGATT	1.02
CAGGTCATTG	1.04
TGGATTCGAG	0.978
ATTTCCTCT	1.07
CAATTTTGTT	1.02
CGATGGCAA	3.17

Sequence	switch fluorescence ratio
CCGACAGAAT	4.67
AGATTTATT	1.03
CGCTAGTGC	1.89
GCAGTGCAGA	1.03
ATAGATCGTG	0.974
GAGAATAGTG	0.99
AGGTTTTAG	1.03
CAAAGAAAGT	1
CCGTTCGGCG	0.993
TGGTTCCATT	0.95
AGGGATTGAC	1.03
TGAAACGGG	0.998
TGTTAAACAC	1.1
AGAGGCAGG	1.02
TTAAGCAGGT	0.98
ACCACGGCGC	1.11
GTTGCACCAG	1.02
TTGAGGCGAA	1.22
GGGAGTCAGG	1.01
CGTAGTAAGA	1.32
TGACGCAAG	1.14
GAGTGAGACC	0.974
TTCTAAGAAG	0.957
TCTAATAAT	0.964
TTTAGTTC	0.944
TCGGAGTGTT	1.05

Sequence	switch fluorescence ratio
TACGTTGGTT	0.967
TTATTCATCC	1
TGGCTTGTG	0.988
GATGTAAATA	1.02
CGTTCTGCTG	0.999
CACCCGGGGA	1.14
CATTGCCAGC	1.01
CCTTGGTCA	1.08
GACTAAAACA	1.01
AACGGCAATG	1.2
AGATATATCA	1.01
AAGGTGACGT	1.03
ATTCTGATCC	1
GATAGCGTAT	0.983
TGGGAGCAGA	0.987
GGAGTGTTGC	1.01
TGTTGGTCGG	0.969
GGAGTACTTC	1.03
GAAAGTGGCT	0.981
ATTCGTATCT	1.03
TACGTTTTAG	0.976
GTATTGCGTA	1.03
TTGATGAGTT	0.992
GGCTTTGTTA	0.939
GCTCCCCGTA	1.06
TAAGTCGACT	1.02

Sequence	switch fluorescence ratio
GAATCTAATA	1.02
ATCTTTGCAA	2.42
TTAAACGAAA	1.04
TATGCGGGCT	0.989
CACTGGTAAT	1.03
GCCTAAGTT	0.994
GGATATGCAT	1.02
CACATACGGT	1.56
GTGTATATAG	0.988
ATGTCCGATC	1.03
CTTGAACATT	1.03
AGACACCCCG	1.01
TACTTTTTTG	1.01
CCTTCTTGTG	1.05
TCTCGCGCTT	1.57
CAATGTGAT	0.988
CGGAGCCGGT	0.992
TAGTATTTGA	1
ATTTAACCCA	1.03
ACGAGCTCCA	1.07
ATGTTTAGC	0.992
GAATTTCTGT	1.02
ACGGCCACT	1.25
GGATATTGA	1.03
GGATAGCTAG	0.991
CACCTACTTA	1.27

Sequence	switch fluorescence ratio
TCGATTGGTA	1.01
TCAATAGTTG	0.978
GAAATGCTGT	1.03
CCGGTTTTTC	1.1
GTTAAAACAC	1.04
TCGGTAATGT	0.987
AACGTTAAAA	1.07
AATGGGAGTA	1
GCCAGGGTTG	0.995
GCCGTAACTT	1.01
ATCAGGTCGT	1.01
GGATTTCATA	0.994
AAGAGCATTC	1.08
GGAACATGTT	1
TTTTACTAAC	1.17
GACATTATTA	1.02
AGTAAATCAC	1.04
AGAAGACGTG	0.945
ATAAAGGCCA	0.994
TGTTTTGCGC	1
GCGTGCCGGG	1.01
CAATGCCAAG	1.16
AGTGTATATT	1.04
CGCTTATTTG	0.99
ATAGGAAATG	0.992
GGGGTATTCA	1.01

Sequence	switch fluorescence ratio
CGGGCGGATC	1.01
GATGTCGCCG	0.965
ACCCCGGGGG	1.01
TGAGGTGGCC	1.02
GCGGGACACG	0.964
AGGGGCTCGC	1.05
AGAATATGCT	0.997
ATTGTGTATT	0.959
CTTTAGTAGT	1.01
GGGCCCTAAC	1.04
AAACTACGTG	1.02
TACTGCCTCT	1.05
GCGGTAGATC	1.11
TATCCTTGGG	0.984
GGTGGTCCAC	0.974
ATAGTGGCTG	0.977
TGCGGGAATG	1
TAGGCCGAGA	0.936
TGTCAAAGAA	1.03
CCTGCAACCG	1.72
GCTGAGGGAT	1.01
CCGTTGCGTC	1.18
GTGTGCGGCA	1.01
AAAGGTTGTG	0.96
GCGTTGTGCT	1.09
CAGGATATCA	1.02

Sequence	switch fluorescence ratio
CAAGCCGTCG	0.984
AAATGGTCCG	0.997
CAGTAGGTGA	1.07
CACTTTTT	1.04
GTCTGCGGTC	1.07
TTTGCGAAAC	1.9
AAGAAAGA	0.937
TGTTGTAGAG	1.01
AACCGAAAAC	1.67
AGCCTGTACG	1.02
CTATCTGG	0.987
GACACACGTT	1.04
CTGTCTGGG	0.997
CGTGCCGGGA	1.01
GATGCCGGGC	0.969
TAGCGGTATC	1.04
TTCTATGGG	1.02
AGAAGGGTCT	0.997
AAAATATTAC	1.05
GAGTCTAGGG	0.989
AAACTCCAAG	1.01
TTGTCAGGAA	0.972
GATGTGTAGC	1.04
GTTGAGCAAT	2.89
AACCTACTTT	1.15
CCAATTGATG	1.02

Sequence	switch fluorescence ratio
GTTGTCCGTA	1.03
TTGAGGAATT	0.974
GGGGTTACA	0.98
CGCGGTTGTA	1.06
GCCACATTTA	0.982
AACCAAGTCT	1.22
AGTTTAGTTT	0.992
ACTAGACTTG	1.01
CGCATATTAG	1.87
TGGCAGCCGA	1.01
ACTGGTATTT	1.01
AAAGCATGTT	0.971
ATCAGCTAC	2.44
TAATGTTTTC	1.03
GCTGGGCGGT	0.958
ACAAGTTTCG	0.994
GATCTGGACC	1.03
CCAACATATC	1.15
GGAAGGTAGG	0.977
